Assay results published in the supplement of paper PMC8512760.
Some of the results follow. Repeats are few or missing, and single values can be far off.

System: HCC-1187
Assay: cell viability relative to vehicle (% of vehicle); basal-like triple-negative breast cancer lines; higher = less cytotoxic
Conditions: 10 µM; 72 h
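Also: stably firefly luciferase-GFP labeled cells in 96-well plates, viability read as luciferase photon flux after d-luciferin addition, treated wells normalized to vehicle wells, single-dose high-throughput screen.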

| SMILES | cell viability |
| --- | --- |
| COc1ccc2c(c1)c(CC(=O)O)c(C)n2C(=O)c1ccc(Cl)cc1 [Indomethacin] | 78.5 |
| CCCCCN(C)CCC(O)(P(=O)([O-])O)P(=O)(O)O.O.[Na+] [Ibandronate sodium] | 87.6 |
| Cc1ccc(NC(=O)c2ccc(CN3CCN(C)CC3)cc2)cc1Nc1nc(-c2cccnc2)cs1 [Masitinib (AB1010)] | 54.2 |
| Cl.Nc1ccn(C2OC(CO)C(O)C2O)c(=O)n1 (configuration not stated) [Cytarabine hydrochloride] | 64 |
| CNCC(O)c1ccc(O)c(O)c1.Cl (configuration not stated) [Epinephrine HCl] | 80.8 |
| CCOc1cc(N)c(Cl)cc1C(=O)NCC1CN(Cc2ccc(F)cc2)CCO1.O=C(O)CC(O)(CC(=O)O)C(=O)O (configuration not stated) [Mosapride Citrate] | 103 |
| Cc1cccc(Nc2ccncc2S(=O)(=O)NC(=O)NC(C)C)c1 [Torsemide] | 112 |
